Data published in patent US20130122005A1, “ANTICANCER COMBINATION THERAPY” (priority 2011, published 2013).

Tests used:
[1] = target: T1, human IGF-2 (Homo sapiens, UniProt P01344); assay: Direct immunosorbent assay (ELISA), human IGF-2; assay type: binding; details: up to 50 ng/ml
T1 construct: insulin-like growth factor-2 (IGF-2; a 67 amino-acid polypeptide)
Description: (§1) Fully human IgG1 antibodies that bound with high affinity to IGF-1 are also tested for binding to human IGF-1 in direct immunosorbent assays (ELISA). Assays are performed by coating human IGF-1 (R&D Systems, No. 291-G1) to 96-well Maxisorb plates at a concentration of 0.5 μg/ml overnight at 4° C. (100 μl/well). Coating buffer alone is used as a control for unspecific binding. Wells are then washed once with washing buffer (1×TBS-T) and residual binding sites are blocked with 200 μl blocking buffer for 1 hour at room temperature on an orbital shaker followed by a further wash cycle. Serial three-fold dilutions of each test antibody in blocking buffer are prepared directly on the coated plates. Typical concentrations used are 50, 16.6, 5.6, 1.8, 0.6, 0.2, and 0.07 ng/ml. Blocking buffer alone is used as a positive control. The plates are then incubated for 2 hours at room temperature with agitation. After three wash cycles 100 μl/well of HRPO-conjugated anti-human IgG secondary reagent (Jackson ImmunoResearch Inc.) diluted in blocking buffer is added to all wells. After 2 hours incubation at room temperature with agitation the plates are washed three-times and 100 μl/well of TMB substrate solution (equal amounts of solution A and B) are pipetted into all wells. The plates are incubated for 10-20 min at RT with agitation and then the reaction is stopped by addition of 100 μl/well 1 M phosphoric acid. The absorbance is measured at a wavelength of 450 nm (reference 650 nm).
(§2) Binding of the fully human IGF-1 binding IgG1 antibodies to mouse IGF-1 (R&D Systems, No. 791-MG), rat IGF-1 (IBT, No. RU100), human IGF-2 (GroPep, No. FM001), mouse IGF-2 (R&D Systems, No. 792-MG), rat IGF-2 (IBT, No. AAU100), and human insulin (Roche) is also tested as described above for human IGF-1 (except that the concentration of human insulin used for coating is 3 μg/ml).

[2] = target: T2, rat IGF-1 (Rattus norvegicus, UniProt P08025); assay: Direct immunosorbent assay (ELISA), rat IGF-1; assay type: binding; details: up to 50 ng/ml
T2 construct: Insulin-like growth factor-1 (IGF-1; a 70 amino-acid polypeptide); purchased IBT RU100
Description: as §1, §2

[3] = target: T3, mouse IGF-1 (Mus musculus, UniProt P05017); assay: Direct immunosorbent assay (ELISA), mouse IGF-1; assay type: binding; details: up to 50 ng/ml
T3 construct: Insulin-like growth factor-1 (IGF-1; a 70 amino-acid polypeptide); purchased R&D Systems 791-MG
Description: as §1, §2

[4] = target: T4, rat IGF-2 (Rattus norvegicus, UniProt P01346); assay: Direct immunosorbent assay (ELISA), rat IGF-2; assay type: binding; details: up to 50 ng/ml
T4 construct: insulin-like growth factor-2 (IGF-2; a 67 amino-acid polypeptide); purchased IBT AAU100
Description: as §1, §2

[5] = target: T5, mouse IGF-2 (Mus musculus, UniProt P09535); assay: Direct immunosorbent assay (ELISA), mouse IGF-2; assay type: binding; details: up to 50 ng/ml
T5 construct: insulin-like growth factor-2 (IGF-2; a 67 amino-acid polypeptide)
Description: as §1, §2

[6] = target: T6, human insulin (Homo sapiens, UniProt P01308); assay: Direct immunosorbent assay (ELISA), human insulin; assay type: binding; details: highest concentration tested 50 ng/ml
T6 construct: and human insulin (Roche) is also tested as described above for human IGF-1; purchased Roche
Description: as §1, §2

[7] = system: total rat IGF-1; assay: Effect on total rat serum IGF-1 levels; assay type: in vivo, Wistar Han rats; details: rats, single 10 minute i.v. 30, 100, 200 mg/kg, 24 hours post administration
Description: (§3) Single intravenous (bolus) administrations of 25, 12.5, 6.25, and 3.13 mg/kg of test IGF antibody are given to female athymic NMRI nude mice, 6-8 weeks old (n=5). Single 10 minute intravenous administrations of 30, 100, 200 mg/kg of antibody 60819 are given to male and female Wistar Han rats, 6-8 weeks old (n=4 male, 4 female). Prior to antibody treatment and 24 hours post administration a blood sample is taken, serum collected, and total murine or rat IGF-1 levels determined using the OCTEIA rat/mouse total IGF-1 immunocytometric assay. The assay is performed according to the manufacturer's instructions, absorbance is measured at 450 nm and evaluated using the SoftMax Pro software. A standard curve is used to determine the serum concentration of total IGF-1 in ng/ml. Statistical analysis is performed using the GraphPad Prism software.

[8] = system: phosphorylation of AKT; assay: Western blot of phosphorylated AKT in SK-ES-1 cells; assay type: cell-based; details: 100 nM, 24 hours
Description: (§4) 24 hours later the cells are lysed and the cell lysate frozen after the protein concentration is determined by Bradford assay. Western blotting is performed by applying 30 µg of protein lysates to an SDS PAGE gel (BioRad) and the gel blotted on a Citerian gel blotting sandwich. Western blots are incubated overnight with a rabbit anti-beta actin (control) antibody, a rabbit anti-PTEN antibody (Cell Signaling #9559), or a rabbit anti-phospho-pAKT antibody (Cell Signaling #4060), at 1:5000 (anti-beta actin), 1:1000 (anti-PTEN), or 1:2000 (anti-phosphoAKT) dilutions in 1% milk powder. Following washing in TBS an anti-rabbit IgG HRPO-conjugated secondary antibody (Amersham) is applied for 1 hour and after further washes in TBS antibody reactivity is detected by ECL and captured on Hyperfilm (Amersham).

[9] = system: total murine IGF-1; assay: Effect on total murine serum IGF-1 levels; assay type: in vivo, athymic NMRI nude mice; details: mice, single i.v. doses 3.13-25 mg/kg, 24 hours post administration
Description: as §3

[10] = system: PTEN; assay: Western blot of PTEN levels in SK-ES-1 cells; assay type: cell-based; details: 100 nM, 24 hours
Description: as §4

[11] = Pharmacokinetic parameters in rats; assay type: in vivo, Wistar rats; details: for AUC(0-72 h): first day of dosing; for t½φ: after last day of dosing with t(n) = 1008 hr
Description: Wistar rats are given five intravenous bolus administrations of 18, 52, and 248 mg/kg antibody every 72 hours. At various time points a blood sample is taken and the human antibody concentration in the plasma is determined by sandwich ELISA.

[12] = system: human serum induced phosphorylation of the IGF-1R; assay: Cell based IGF-1R phosphorylation ELISA, human serum stimulus; details: stimulus Human Serum Pooled from Healthy Donors (20%)
Description: Mouse fibroblast cell lines recombinantly expressing human IGF-1R or human IR-A are maintained in DMEM supplemented with 10% heat inactivated FCS, 1 mM sodium pyrovate, 0.075% sodium bicarbonate, MEM NEAA, and 0.3 µg/ml puromycin at 37° C. and 5% CO2 in a humidified incubator. Cells are detached with trypsin/EDTA, resuspended in growth medium and diluted to 100,000 cells/mL. 100 μL (10,000 cells) are seeded in wells of a sterile 96-well plate and incubated overnight in a humidified incubator at 37° C. and 5% CO2. The cells are then starved with 100 μL/well assay medium (DMEM supplemented with 0.5% heat inactivated FCS; 1 mM sodium pyrovate, 0.075% sodium bicarbonate, and MEM NEAA) and incubated overnight as before. […] 100 μL/well TMB substrate solution (Bender MedSystems, No. BMS406.1000) is added to the wells and incubated for 10 min with agitation, following this the reaction is stopped by adding 100 μL/well 1 M phosphoric acid and the absorbance read using a photometer (OD 450 nm, OD 650 nm as reference). Inhibition of IGF-1R or IR-A phosphorylation IC50 values are determined by graphical analysis.
The level of IGF bioactivity in human serum or plasma samples can also be measured using the IGF-1R phosphorylation cell based ELISA.

T1 sequence (P01344 25-91 limits assumed): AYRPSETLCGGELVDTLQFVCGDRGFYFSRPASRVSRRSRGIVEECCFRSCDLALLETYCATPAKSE
T2 sequence (P08025 49-118 limits assumed): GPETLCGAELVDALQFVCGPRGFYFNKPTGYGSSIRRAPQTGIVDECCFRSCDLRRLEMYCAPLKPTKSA
T6 sequence (P01308 25-54 limits assumed): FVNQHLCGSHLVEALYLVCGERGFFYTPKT
T6 sequence (P01308 90-110 limits assumed): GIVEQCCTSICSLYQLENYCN
T3 sequence (P05017 49-118 limits assumed): as the sequence (P08025 49-118 limits assumed) above, with S69A counted along it
T5 sequence (P09535 25-91 limits assumed): as the sequence (P01344 25-91 limits assumed) above, with R3G, S5G, G22S, A32S, V35A, S36N counted along it
T4 sequence (P01346 25-91 limits assumed): as the sequence (P01344 25-91 limits assumed) above, with G22S, A32S, V35A, S36N counted along it

- binding to human IGF-2 [1]: comparable cross-reactive binding
- binding to rat IGF-1 [2]: comparable cross-reactive binding
- binding to mouse IGF-1 [3]: comparable cross-reactive binding
- binding to rat IGF-2 [4]: comparable cross-reactive binding
- binding to murine IGF-2 [5]: comparable cross-reactive binding
- reactivity to human insulin [6]: no reactivity
B1: 60814: human IgG1 anti-IGF antibody; SEQ ID NO:35 (heavy chain) and SEQ ID NO:36 (light chain) (antibody, listed as Homo sapiens)
heavy: QVELVESGGGLVQPGGSLRLSCAASGFTFSNYWMHWVRQAPGKGLEWVSGISGWSSWTYYADSVKGRFTISRDNSKNTLYLQMNSLRAEDTAVYYCARFGIDAYTKVYFDYWGQGTLVTVSS[human IgG1 constant region not printed]
light: DIELTQPPSVSVAPGQTARISCSGDNIPLKYVSWYQQKPGQAPVLVIHDDNKRPSGIPERFSGSNSGNTATLTISGTQAEDEADYYCSSWDTLDIFNVFGGGTKLTVLGQPKAAPSVTLFPPSSEELQANKATLVCLISDFYPGAVTVAWKGDSSPVKAGVETTTPSKQSNNKYAASSYLSLTPEQWKSHRSYSCQVTHEGSTVEKTVAPTECS

- binding to human IGF-2 [1]: comparable cross-reactive binding
- binding to rat IGF-1 [2]: comparable cross-reactive binding
- binding to mouse IGF-1 [3]: comparable cross-reactive binding
- binding to rat IGF-2 [4]: comparable cross-reactive binding
- binding to murine IGF-2 [5]: comparable cross-reactive binding
- reactivity to human insulin [6]: no reactivity
B2: 60819: human IgG1 anti-IGF antibody; SEQ ID NO:37 (heavy chain) and SEQ ID NO:38 (light chain) (antibody, listed as Homo sapiens)
heavy: B1 heavy
light: B1 light with S88Q, W90Y, T92Y, L93F, D94P, I95K, N97V
- effect on serum total rat IGF-1 levels [7]: dose dependent elevation
- effect on phosphorylation of AKT [8]: inhibited AKT phosphorylation
- effect on serum total murine IGF-1 levels [9]: dose dependent elevation
- effect on total levels of PTEN [10]: do not affect the total levels of PTEN

- binding to human IGF-2 [1]: comparable cross-reactive binding
- binding to rat IGF-1 [2]: comparable cross-reactive binding
- binding to mouse IGF-1 [3]: comparable cross-reactive binding
- binding to rat IGF-2 [4]: comparable cross-reactive binding
- binding to murine IGF-2 [5]: comparable cross-reactive binding
- reactivity to human insulin [6]: no reactivity
B3: 60833: human IgG1 anti-IGF antibody; SEQ ID NO:39 (heavy chain) and SEQ ID NO:40 (light chain) (antibody, listed as Homo sapiens)
heavy: QVELVESGGGLVQPGGSLRLSCAASGFTFTSYWMSWVRQAPGKGLELVSSITSYGSFTYYADSVKGRFTISRDNSKNTLYLQMNSLRAEDTAVYYCARNMYTHFDSWGQGTLVTVSS[human IgG1 constant region not printed]
light: DIVLTQPPSVSGAPGQRVTISCSGSSSNIGSNSVSWYQQLPGTAPKLLIYDNSKRPSGVPDRFSGSKSGTSASLAITGLQSEDEADYYCQSRDTYGYYWVFGGGTKLTVLGQPKAAPSVTLFPPSSEELQANKATLVCLISDFYPGAVTVAWKGDSSPVKAGVETTTPSKQSNNKYAASSYLSLTPEQWKSHRSYSCQVTHEGSTVEKTVAPTECS
- AUC(0-72 h) ([11]; 18 mg/kg i.v. bolus): 15.5 mg·h/mL
- t½φ ([11]; 18 mg/kg): 210 h
- AUC(0-72 h) ([11]; 52 mg/kg i.v. bolus): 40.2 mg·h/mL
- t½φ ([11]; 52 mg/kg): 197 h
- AUC(0-72 h) ([11]; 248 mg/kg i.v. bolus): 120 mg·h/mL
- t½φ ([11]; 248 mg/kg): 255 h
- IC50 IGF-1R phosphorylation [12]: 0.25 µg/mL

Substitutions are numbered along the chain they refer to. Each block holds one molecule with its values, some of them ahead of it.
